# Laboratory results taken from PubChem BioAssay AID2100 (National Center for Advancing Translational Sciences (NCATS), 2009).
# Screen size: about 300,000 compounds; about 1,200 (0.4%) were called active. Inconclusive results, whose numbers are uncertain, are shown with a selection of clear calls. Calls come from the whole dose curve; as a rule, active = well fitted inhibition curve with a large enough effect; inconclusive = small, poorly fitted or top-dose-only effect, or another doubt; inactive = no such curve, though single readings can be large or run the other way. Potencies of inconclusive entries are doubtful fits and often do not repeat.
# Target: Lysosomal alpha-glucosidase (Homo sapiens) (UniProt P10253)
# Assay: qHTS Assay for Inhibitors and Activators of Human alpha-Glucosidase Cleavage of Glycogen;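 for activity change, negative = inhibition: 0% = full enzyme reaction and -100% = no-enzyme basal signal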
# Conditions: recombinant GAA, glycogen substrate, Amplex Red glucose oxidase fluorescence; activity change, negative = inhibition: at 76.4 µM (top of the series) unless noted
# Summary of the method: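 qHTS, 1536-well; enzyme 4 nM final; cpd up to 77 uM; substrate bovine liver glycogen 30 ug; 50 mM citrate/phosphate pH 5.0, 0.01% Tween-20; 37 C, 40 min; Amplex Red detection 45 min RT; Hill fit → AC50.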
# Potency is the fitted concentration of half-maximal effect.
SMILES,Potency,"activity change, negative = inhibition"
NC(=S)N/N=C/c1coc2c(ccc3ccccc32)c1=O,"inconclusive: 2.8 µM [inhibitor, full curve]",
COc1ccc(S(=O)(=O)N=C2C=C(C)C(=O)C(C)=C2)cc1,"inconclusive: 31.6 µM [inhibitor, single point]",
C=CCC(CC(O)COCCC)C(=O)NNC(=S)Nc1ccccc1 (stereo unspecified),"inconclusive: 17.8 µM [inhibitor, partial curve]",
C(=N\Nc1nc2ccccc2[nH]1)/c1ccc2c(c1)OCCO2,active: 12.6 µM,
COc1ccc(N=C2C(=O)N3c4c(cccc42)C(C)=CC3(C)C)cc1,"inconclusive: 39.5 µM [inhibitor, single point]",
CCN(c1ccccc1)S(=O)(=O)c1nnc(NC(=O)c2ccccc2OC)s1,"inconclusive: 11.2 µM [inhibitor, single point]",
CC(=O)N1CCN(c2nnnn2-c2ccccc2)CC1,,inactive: 4.95%
NC(=S)NNc1ccnc2cc(Cl)ccc12,"inconclusive: 14.1 µM [inhibitor, partial curve]",
COc1ccc2[nH]c3c(c2c1)[C@@H]1CCN2C(=O)CCC[C@H](C3)[C@H]12,,inactive: -4.54% [at 76.3 µM]
O=C(/C=C/c1cccs1)N1CCN(c2ccc(O)cc2)CC1,"inconclusive: 8.84 µM [inhibitor, single point]",
Oc1ccccc1N1CCN(CC(O)COC2CCCc3ccccc32)CC1 (stereo unspecified),"inconclusive: 8.91 µM [inhibitor, single point]",
CCN1c2ccc(S(=O)(=O)N3CCOCC3)cc2N(Cc2ccc(OC)cc2)C1C (stereo unspecified),"inconclusive: 22.2 µM [activator, partial curve]",
O=C1/C(=C\c2ccc(O)c(O)c2)N=C2CCCCCN12,active: 7.08 µM,
Oc1ccccc1/C=N/Nc1nccnc1Cl,,inactive: -1.22%
COc1ccc(N=Cc2c(O)[nH]c3ccccc23)cc1OC,"inconclusive: 28.2 µM [inhibitor, partial curve]",
COc1ccc(-c2nc3n(n2)C(c2ccccc2OC)C(C(=O)Nc2cccnc2)=C(C)N3)cc1 (stereo unspecified),"inconclusive: 17.8 µM [inhibitor, partial curve]",
COc1ccc(CC(=O)Nc2cc(C)ccc2O)cc1OC,"inconclusive: 31.6 µM [inhibitor, partial curve]",
CC1(C)CC=C(NNC(=O)c2cccnc2)C(=O)C1,"inconclusive: 14 µM [inhibitor, partial curve]",
Cc1cc2n(n1)C(c1ccc3c(c1)OCO3)Nc1ccccc1-2 (stereo unspecified),"inconclusive: 22.2 µM [inhibitor, partial curve]",
Cc1nnc(N/N=C/c2ccc([N+](=O)[O-])cc2)n1N,,inactive: 0.848%
COc1ccccc1CC(=O)Nc1ccc2nc(Nc3cccc(C(F)(F)F)c3)cc(C)c2c1,,inactive: 5.2% [at 76.3 µM]
Cc1cccn2c(=O)c(C=Nc3c(C)n(C)n(-c4ccccc4)c3=O)c(N3CCCC3)nc12,active: 11.2 µM,
NNC(=O)c1sc2cc(C(F)(F)F)cnc2c1-c1cccs1,"inconclusive: 44.7 µM [inhibitor, partial curve]",

SMILES,Potency,"activity change, negative = inhibition"
O=C(Nc1nc2n(n1)C(c1ccc(F)cc1)C=C(c1ccc(Cl)cc1)N2)c1ccc([N+](=O)[O-])cc1 (stereo unspecified),,inactive: 12% [at 76.3 µM]
CN(C)S(=O)(=O)c1ccc2oc(SCC(=O)NCC(F)(F)F)nc2c1,"inconclusive: 22.2 µM [inhibitor, partial curve]",
N#CC1=C(N)Oc2c(ccc3ccccc23)C1c1ccsc1 (stereo unspecified),"inconclusive: 22.2 µM [activator, partial curve]",
CCCc1nc2ccccc2c(=O)n1NC(=O)c1c(O)c2ccccc2[nH]c1=O,,inconclusive: 33.8% [activator]
CC(C)c1ccc(Nc2nc(CC(=O)O)cs2)cc1,"inconclusive: 35.5 µM [inhibitor, single point]",
CC(C)NC(=O)CSc1cn(CC(=O)N2CCCCCC2)c2ccccc12,,inactive: 13.1% [at 76.3 µM]
S=c1[nH]nc(-c2ccco2)n1/N=C/C=C/c1ccccc1,"inconclusive: 31.6 µM [inhibitor, partial curve]",
COc1ccc2c(c1)-c1c(sn(-c3ccccc3)c1=S)C(C)(C)N2,"inconclusive: 50.1 µM [inhibitor, single point]",
CC1OC2(C)OC(=N)C1(C#N)C(C#N)(C#N)C2c1ccccc1 (stereo unspecified),,inactive: 0.538%
CCOc1cc(CNc2ccc(N3CCOCC3)cc2)cc(Br)c1OCC,,inactive: -2.21%
Cc1csc(=N)n1-c1ccc(Cl)cc1,"inconclusive: 14 µM [inhibitor, partial curve]",
Cc1ccc(NC(=S)N/N=C/c2c(C)[nH]c3ccccc23)cc1,active: 28.2 µM,
Cc1cccc2nc(-c3ccco3)c(Nc3ccc4c(c3)OCCO4)n12,"inconclusive: 6.31 µM [inhibitor, partial curve]",
CCOC(=O)C1CCCN(Cc2cc(OC)c(O)c(OC)c2)C1 (stereo unspecified),"inconclusive: 22.4 µM [inhibitor, partial curve]",
CCN(CC)c1ccc(NC(=S)NC(=O)c2cccs2)cc1,active: 14.1 µM,
Cc1ccccc1S(=O)(=O)NC1OC(=O)C(Oc2ccccc2)=C1Br (stereo unspecified),,inactive: -4.79%
C=CCc1c(C)nc(-c2ccccc2)nc1N/N=C(\C)c1ccc(N)cc1,"inconclusive: 39.8 µM [inhibitor, single point]",
COc1ccc(NC(=S)N2CCN(C(c3ccccc3)c3ccccc3)CC2)c(OC)c1,"inconclusive: 28.2 µM [inhibitor, partial curve]",
CN(C)C(=O)c1cnc(Sc2ncc(C(F)(F)F)cc2Cl)n1C,"inconclusive: 50.1 µM [activator, single point]",
COc1ccccc1NS(=O)(=O)c1cc(NC(=O)c2ccncc2)ccc1N1CCCC1,"inconclusive: 7.03 µM [inhibitor, partial curve]",
Cc1cc(C)c(S(C)(=O)=O)c(N(C)N)n1,"inconclusive: 10 µM [inhibitor, partial curve]",
CCCCC(CCC(=O)O)(C(=O)OCC)c1csc(Nc2ccc(OCC)cc2)n1 (stereo unspecified),"inconclusive: 35.5 µM [inhibitor, partial curve]",
CCN(CC)C(=O)c1[nH]cnc1C(=O)N[C@@H](Cc1ccccc1)C(=O)OC(C)(C)C,,inactive: -4.9% [at 76.3 µM]
